Inconclusive means that the source gave no clear call. Such entries were picked first, then a sample of the others. For part of these data: Potencies of inconclusive entries are doubtful fits and often do not repeat. The source made the active and inactive calls. Unless noted, calls come from the whole dose curve; as a rule, active = well fitted curve in the direction sought with a large enough effect in the repeat runs; inconclusive = weak or mixed curves; inactive = no such curve, though single readings can be large; an effect the other way counts as inactive or inconclusive.
Assays:
[1] = qHTS assay for identifying genotoxic compounds that show differential cytotoxicity against isogenic chicken DT40 cell lines with known DNA damage response pathways - wild type cell line (AID 743012); conditions: DT40 wild type chicken cells viability, CellTiter-Glo, 40 h; activity change, negative = cytotoxicity: at 68.4 µM (top of the series) unless noted; note: % is set by controls: 0 for no effect and ±100 for the full control effect; nearly all actives have a fitted effect of over 60% in size
Procedure, shortened: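 Parental DNA repair-proficient DT40 cells, 300 per well, were pre-incubated ~0.5 h at 37 C/5% CO2, pin-dosed with compounds in DMSO, then incubated 40 h. Viability was read as CellTiter-Glo luminescence after 30 min at room temperature.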

[2] = qHTS assay for identifying genotoxic compounds that show differential cytotoxicity against isogenic chicken DT40 cell lines with known DNA damage response pathways - Rev3 mutant cell line (AID 743014); conditions: chicken DT40 Rev3-/- viability, CellTiter-Glo, 40 h; activity, negative = cytotoxicity: at 68.4 µM (top of the series) unless noted; note: potency is the fitted concentration of half-maximal effect; nearly all actives have a fitted effect of over 55% in size
[3] = qHTS assay to identify small molecule antagonists of the androgen receptor (AR) signaling pathway - cell viability counter screen (AID 743033; note: % is set by controls: 0 for no effect and ±100 for the full control effect; nearly all actives have a fitted effect of over 45% in size); conditions: AR-bla HEK293 viability, CellTiter-Glo luminescence, 16 h; activity change, negative = cytotoxicity: at 58.5 µM (top of the series) unless noted
[4] = target: Estrogen receptor (Homo sapiens) (UniProt P03372); experiment: qHTS assay to identify small molecule antagonists of the estrogen receptor alpha (ER-alpha) signaling pathway (AID 743069; active = well fitted curve in the direction sought with a large enough effect in the signal ratio in the repeat runs, not every such curve was filed as active; inconclusive = weak or mixed curves, or effect the other way; inactive = no such curve, though single readings can be large or run the other way; the % refers to the signal ratio; note: potency is the fitted concentration of half-maximal effect); conditions: HEK293 ER-alpha-UAS-bla, beta-lactamase ratio, antagonist mode; activity, negative = inhibition: at 69.4 µM (top of the series) unless noted
Procedure, shortened: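 ER-alpha-UAS-bla GripTite HEK293 line; 2% charcoal-stripped FBS overnight; plated, 4 hr 37C/5% CO2; cpd in DMSO + 17beta-estradiol, 18 hr 37C; LiveBLAzer B/G FRET substrate 2 hr RT; fluorescence intensity.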

[5] = qHTS assay to identify small molecule antagonists of the estrogen receptor alpha (ER-alpha) signaling pathway using the BG1 cell line - cell viability counter screen (AID 743081); conditions: BG1Luc4E2 viability, CellTiter-Fluor, 22 h; activity change, negative = cytotoxicity: at 70.3 µM (top of the series) unless noted;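 note: compound given together with 17beta-estradiol as the ER stimulus; % is set by controls: 0 for no effect and ±100 for the full control effect; nearly all actives have a fitted effect of over 45% in size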
[6] = qHTS assay for small molecule agonists of the antioxidant response element (ARE) signaling pathway (AID 743202; active = well fitted activation curve with a large enough effect in the signal ratio in the repeat runs, not every such curve was filed as active; inconclusive = weak or mixed curves, or effect the other way; inactive = no such curve, though single readings can be large or run the other way; the % refers to the signal ratio; note: % is set by controls: 0 for no effect and ±100 for the full control effect); conditions: HepG2 ARE-bla reporter, beta-lactamase FRET, 16 h; activation: at 73.3 µM (top of the series) unless noted
Procedure, shortened: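 Quantitative high-throughput format in HepG2 cells bearing an integrated ARE-beta-lactamase reporter. Compound exposure lasted 16 h at 37 C, and fluorescence was read 2 h after adding LiveBLAzer B/G substrate at room temperature.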

[7] = target: Vitamin D3 receptor (Homo sapiens) (UniProt P11473); experiment: qHTS assay to identify small molecule antagonists of the vitamin D receptor (VDR) signaling pathway (AID 743223; active = well fitted inhibition curve with a large enough effect in the signal ratio in the repeat runs, not every such curve was filed as active; inconclusive = weak or mixed curves, or effect the other way; inactive = no such curve, though single readings can be large or run the other way; the % refers to the signal ratio; note: % is set by controls: 0 for no effect and ±100 for the full control effect); conditions: VDR-UAS-bla HEK293T, beta-lactamase FRET ratio, 16 h; activity change, negative = inhibition: at 61 µM (top of the series) unless noted
Procedure, shortened: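 Antagonist mode: compound added to VDR-bla cells alongside agonist 1alpha,25-dihydroxyvitamin D3 (3 nM final), incubation 16 h at 37C. Read-out is LiveBLAzer FRET fluorescence, 2 h at room temperature.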

[8] = qHTS assay to identify small molecule antagonists of the estrogen related receptor (ERR) signaling pathway from Tox21 library - cell viability counter screen (AID 1224834); note: % is set by controls: 0 for no effect and ±100 for the full control effect; nearly all actives have a fitted effect of over 30% in size
Procedure, shortened: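 ERR reporter cells were plated 6 h before compound addition, then exposed to test compounds in DMSO for 17.5 h at 37 C. Viability was read as CellTiter-Fluor fluorescence after a 30-minute incubation at 37 C.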

[9] = target: Luciferin 4-monooxygenase (Photinus pyralis) (UniProt P08659); experiment: qHTS assay to identify small molecule inhibitors of firefly luciferase (AID 1224835); note: potency is the fitted concentration of half-maximal effect; nearly all actives have a fitted effect of over 25% in size
Procedure, shortened: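 Inhibition of purified Photinus luciferase is measured by luminescence. Substrate levels (D-luciferin, ATP) sit at their KM values. Each compound is tested in a concentration series.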

[10] = target: Thyrotropin receptor (Homo sapiens) (UniProt P16473); experiment: qHTS assay to identify small molecule agonists of the thyroid stimulating hormone receptor (TSHR) signaling pathway (AID 1224843; calls by dose curve; note: % is set by controls: 0 for no effect and ±100 for the full control effect; nearly all actives have a fitted effect of over 45% in size); conditions: TSHR-HEK293 cells, cAMP HTRF, agonist mode, 30 min; activation: at 92.4 µM (top of the series) unless noted
Procedure, shortened: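 Screening of the Tox21 10K collection used HEK293 cells engineered with TSHR at 800 cells per well. After a 30-min room-temperature compound exposure, HTRF cAMP reagents were added and fluorescence recorded 1 h later.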

[11] = A CellTox Green Cytotoxicity Assay to monitor cytotoxicity in HepG2 cells - 16 hour (AID 1224876); note: potency is the fitted concentration of half-maximal effect; nearly all actives have a fitted effect of over 45% in size
Procedure, shortened: (§1)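 HepG2 cells were seeded together with the CellTox Green dye at 600 cells/well, left 5 h at 37 C/5% CO2, then given compounds in DMSO. Fluorescence from dye bound to dead-cell DNA was read repeatedly over 40 h of treatment at 37 C.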

[12] = A CellTox Green Cytotoxicity Assay to monitor cytotoxicity in HepG2 cells - 24 hour (AID 1224878)
Procedure, shortened: as §1

[13] = A CellTox Green Cytotoxicity Assay to monitor cytotoxicity in HepG2 cells - 40 hour (AID 1224879); note: potency is the fitted concentration of half-maximal effect; nearly all actives have a fitted effect of over 40% in size
Procedure, shortened: as §1

[14] = A CellTox Green Cytotoxicity Assay to monitor cytotoxicity in HepG2 cells - 32 hour (AID 1224883); note: potency is the fitted concentration of half-maximal effect; nearly all actives have a fitted effect of over 50% in size
Procedure, shortened: as §1

[15] = A CellTox Green Cytotoxicity Assay to monitor cytotoxicity in HepG2 cells - 8 hour (AID 1224890)
Procedure, shortened: as §1

[16] = qHTS assay to identify small molecule antagonists of the progesterone receptor (PR) signaling pathway - cell viability counter screen (AID 1346798); note: % is set by controls: 0 for no effect and ±100 for the full control effect; nearly all actives have a fitted effect of over 50% in size
Procedure, shortened: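 Cytotoxicity read as CellTiter-Glo luminescence (30 min, room temperature) in the same wells as the beta-lactamase readout. HEK293T PR-UAS-bla cells in charcoal-stripped 2% FBS received compound and R5020, then 16 h at 37C, 5% CO2.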

[17] = Caspase-3/7 induction in CHO-K1 cells by small molecules, qHTS cell viability counter screen (AID 1346979); note: % is set by controls: 0 for no effect and ±100 for the full control effect; nearly all actives have a fitted effect of over 35% in size
Procedure, shortened: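 Cytotoxicity counter screen: CellTiter-Fluor added to compound-treated wild-type CHO-K1 cells at 16 h (37C, 5% CO2), fluorescence measured 1 h later; same wells as caspase-3/7 measurement.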

[18] = target: Cytochrome P450 2D6 (Homo sapiens) (UniProt P10635); experiment: Cytochrome P450 Family 2 Subfamily D Member 6 (CYP2D6) small molecule antagonists: luciferase reporter qHTS assay (AID 1671196); note: potency is the fitted concentration of half-maximal effect; nearly all actives have a fitted effect of over 50% in size
Procedure, shortened: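 CYP2D6 enzyme–substrate mix was held with compound for 10 min at room temperature, then NADPH regeneration solution was added and the reaction ran 1 h at room temperature. Luciferin product was detected by luminescence after 20 min with detection reagent.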

[19] = target: Cytochrome P450 2C9 (Homo sapiens) (UniProt P11712); experiment: Cytochrome P450 Family 2 Subfamily C Member 9 (CYP2C9) small molecule antagonists: luciferase reporter qHTS assay (AID 1671198); note: % is set by controls: 0 for no effect and ±100 for the full control effect; nearly all actives have a fitted effect of over 50% in size
Procedure, shortened: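 Enzyme-substrate mix preincubated with compound 10 min at room temperature; reaction started with NADPH regeneration solution, 1 h 37C. Luminescent luciferin product read after 20 min detection reagent.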

[20] = target: Cytochrome P450 1A2 (Homo sapiens) (UniProt P05177); experiment: Cytochrome P450 Family 1 Subfamily A Member 2 (CYP1A2) small molecule antagonists: luciferase reporter qHTS assay (AID 1671199)
Procedure, shortened: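 Human CYP1A2 activity measured with a P450-Glo proluciferin substrate; compounds in DMSO preincubated 10 min at room temperature with enzyme-substrate mix, then NADPH regeneration system added for 1 h. Luciferin detection reagent, 20 min, luminescence read.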

[21] = target: Cytochrome P450 3A4 (Homo sapiens) (UniProt P08684); experiment: Cytochrome P450 Family 3 Subfamily A Member 4 (CYP3A4) small molecule antagonists: luciferase reporter qHTS assay (AID 1671201)
Procedure, shortened: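 Recombinant human CYP3A4 converts a proluciferin substrate to luciferin over 1 h at room temperature after NADPH regeneration solution is added (compound preincubated 10 min); detection reagent stops reaction, luminescence read 20 min later as relative units.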
Tags give direction and shape of the fitted curve or compound fluorescence and quenching.

UniProt P05177, sequence (P05177 whole entry, looked up): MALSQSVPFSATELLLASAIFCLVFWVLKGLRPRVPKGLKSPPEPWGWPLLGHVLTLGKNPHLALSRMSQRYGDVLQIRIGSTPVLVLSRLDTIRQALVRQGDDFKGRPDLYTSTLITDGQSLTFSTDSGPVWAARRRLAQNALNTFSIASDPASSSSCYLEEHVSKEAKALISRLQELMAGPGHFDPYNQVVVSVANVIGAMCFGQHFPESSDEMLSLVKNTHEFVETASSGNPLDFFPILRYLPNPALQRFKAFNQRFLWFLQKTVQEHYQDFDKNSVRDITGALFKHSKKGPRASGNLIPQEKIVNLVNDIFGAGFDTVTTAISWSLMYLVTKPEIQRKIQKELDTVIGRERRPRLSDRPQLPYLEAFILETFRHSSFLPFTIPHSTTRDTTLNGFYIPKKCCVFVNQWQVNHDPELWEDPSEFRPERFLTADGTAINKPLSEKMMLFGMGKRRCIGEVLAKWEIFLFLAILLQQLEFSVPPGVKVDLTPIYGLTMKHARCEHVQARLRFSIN
UniProt P11712, sequence (P11712 whole entry, looked up): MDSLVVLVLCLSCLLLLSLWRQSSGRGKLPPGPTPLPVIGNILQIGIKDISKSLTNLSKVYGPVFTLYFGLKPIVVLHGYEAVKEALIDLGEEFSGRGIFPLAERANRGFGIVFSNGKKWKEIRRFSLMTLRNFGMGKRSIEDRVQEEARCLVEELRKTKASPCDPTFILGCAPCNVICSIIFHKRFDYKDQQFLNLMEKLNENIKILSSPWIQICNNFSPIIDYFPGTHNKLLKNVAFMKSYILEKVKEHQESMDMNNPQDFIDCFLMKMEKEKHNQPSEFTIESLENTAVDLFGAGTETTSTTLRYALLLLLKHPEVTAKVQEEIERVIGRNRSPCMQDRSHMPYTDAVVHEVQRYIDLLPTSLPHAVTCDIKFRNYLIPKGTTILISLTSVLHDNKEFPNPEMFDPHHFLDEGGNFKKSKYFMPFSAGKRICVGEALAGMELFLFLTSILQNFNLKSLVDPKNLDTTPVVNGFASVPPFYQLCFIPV
UniProt P03372, sequence (P03372 whole entry, looked up): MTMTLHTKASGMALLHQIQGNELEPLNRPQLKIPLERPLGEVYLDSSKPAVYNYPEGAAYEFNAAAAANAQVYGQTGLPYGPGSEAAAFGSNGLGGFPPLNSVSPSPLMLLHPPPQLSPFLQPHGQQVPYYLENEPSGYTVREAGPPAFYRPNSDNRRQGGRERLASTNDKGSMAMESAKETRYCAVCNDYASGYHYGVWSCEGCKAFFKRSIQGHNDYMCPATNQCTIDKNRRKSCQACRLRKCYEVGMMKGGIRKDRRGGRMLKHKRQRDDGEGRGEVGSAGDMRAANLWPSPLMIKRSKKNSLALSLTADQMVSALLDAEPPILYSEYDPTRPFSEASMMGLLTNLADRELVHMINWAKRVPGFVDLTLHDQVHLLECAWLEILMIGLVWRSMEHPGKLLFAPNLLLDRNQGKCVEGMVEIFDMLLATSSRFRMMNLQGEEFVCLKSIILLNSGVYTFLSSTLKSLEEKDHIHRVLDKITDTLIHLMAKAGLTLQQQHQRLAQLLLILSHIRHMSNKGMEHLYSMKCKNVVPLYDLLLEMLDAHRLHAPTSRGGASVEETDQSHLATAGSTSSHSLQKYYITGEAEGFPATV
UniProt P08659, sequence (P08659 whole entry, looked up): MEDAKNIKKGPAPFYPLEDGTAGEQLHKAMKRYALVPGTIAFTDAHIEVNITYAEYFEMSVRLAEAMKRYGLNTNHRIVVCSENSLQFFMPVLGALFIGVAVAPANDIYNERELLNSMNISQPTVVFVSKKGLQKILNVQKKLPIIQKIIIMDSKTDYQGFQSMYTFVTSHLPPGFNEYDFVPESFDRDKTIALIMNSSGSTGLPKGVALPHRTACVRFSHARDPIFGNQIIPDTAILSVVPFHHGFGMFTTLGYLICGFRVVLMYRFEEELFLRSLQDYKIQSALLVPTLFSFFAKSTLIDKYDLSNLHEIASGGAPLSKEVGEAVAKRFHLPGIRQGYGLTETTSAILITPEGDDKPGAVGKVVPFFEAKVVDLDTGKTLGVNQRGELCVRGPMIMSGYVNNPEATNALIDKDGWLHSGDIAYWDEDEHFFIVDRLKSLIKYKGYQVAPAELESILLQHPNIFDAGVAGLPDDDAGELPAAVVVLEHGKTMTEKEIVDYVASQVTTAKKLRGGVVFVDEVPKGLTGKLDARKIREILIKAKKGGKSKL
UniProt P11473, sequence (P11473 whole entry, looked up): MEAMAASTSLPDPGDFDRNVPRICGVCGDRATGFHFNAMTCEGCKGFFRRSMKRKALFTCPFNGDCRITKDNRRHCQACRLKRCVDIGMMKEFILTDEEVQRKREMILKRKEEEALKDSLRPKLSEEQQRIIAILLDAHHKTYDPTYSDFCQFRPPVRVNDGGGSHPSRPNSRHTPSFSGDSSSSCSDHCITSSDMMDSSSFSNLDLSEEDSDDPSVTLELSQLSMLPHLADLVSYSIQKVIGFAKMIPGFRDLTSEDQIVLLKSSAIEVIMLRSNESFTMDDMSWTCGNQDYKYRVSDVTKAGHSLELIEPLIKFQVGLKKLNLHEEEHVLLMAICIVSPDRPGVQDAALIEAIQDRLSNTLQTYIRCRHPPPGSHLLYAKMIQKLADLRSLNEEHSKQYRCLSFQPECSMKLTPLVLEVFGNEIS
UniProt P10635, sequence (P10635 whole entry, looked up): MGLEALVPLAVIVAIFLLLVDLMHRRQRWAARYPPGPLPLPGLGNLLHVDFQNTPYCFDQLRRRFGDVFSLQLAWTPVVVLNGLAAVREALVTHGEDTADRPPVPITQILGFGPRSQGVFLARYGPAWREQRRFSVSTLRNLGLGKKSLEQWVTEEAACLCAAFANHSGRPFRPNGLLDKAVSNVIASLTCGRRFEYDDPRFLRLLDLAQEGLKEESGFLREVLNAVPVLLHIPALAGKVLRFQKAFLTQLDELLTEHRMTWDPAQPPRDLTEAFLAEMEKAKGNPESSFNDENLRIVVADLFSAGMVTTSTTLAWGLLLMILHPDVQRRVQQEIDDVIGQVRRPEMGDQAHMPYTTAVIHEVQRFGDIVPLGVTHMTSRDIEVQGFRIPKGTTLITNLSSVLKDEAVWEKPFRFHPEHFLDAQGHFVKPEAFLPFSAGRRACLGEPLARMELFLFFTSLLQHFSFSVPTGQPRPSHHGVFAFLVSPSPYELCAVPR
UniProt P16473, sequence (P16473 whole entry, looked up): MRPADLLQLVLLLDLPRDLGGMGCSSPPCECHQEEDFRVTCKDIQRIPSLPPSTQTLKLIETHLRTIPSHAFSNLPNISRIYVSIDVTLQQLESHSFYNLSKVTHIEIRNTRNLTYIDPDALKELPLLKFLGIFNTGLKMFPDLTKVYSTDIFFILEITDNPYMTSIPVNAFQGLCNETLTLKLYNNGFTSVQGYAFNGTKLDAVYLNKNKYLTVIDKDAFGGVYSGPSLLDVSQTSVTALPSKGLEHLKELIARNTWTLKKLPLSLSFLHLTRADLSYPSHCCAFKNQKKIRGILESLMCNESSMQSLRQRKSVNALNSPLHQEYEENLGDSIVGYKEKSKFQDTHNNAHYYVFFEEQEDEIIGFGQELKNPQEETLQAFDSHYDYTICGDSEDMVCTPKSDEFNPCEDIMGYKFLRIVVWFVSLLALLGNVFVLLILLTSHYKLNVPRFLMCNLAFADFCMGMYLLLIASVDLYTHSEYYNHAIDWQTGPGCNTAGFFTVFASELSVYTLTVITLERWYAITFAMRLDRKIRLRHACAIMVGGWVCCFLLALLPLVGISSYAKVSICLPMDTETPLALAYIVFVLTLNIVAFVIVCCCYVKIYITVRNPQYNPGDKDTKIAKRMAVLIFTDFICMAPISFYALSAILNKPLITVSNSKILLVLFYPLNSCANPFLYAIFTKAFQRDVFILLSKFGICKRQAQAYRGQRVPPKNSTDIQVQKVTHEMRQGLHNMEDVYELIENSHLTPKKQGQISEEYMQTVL
UniProt P08684, sequence (P08684 whole entry, looked up): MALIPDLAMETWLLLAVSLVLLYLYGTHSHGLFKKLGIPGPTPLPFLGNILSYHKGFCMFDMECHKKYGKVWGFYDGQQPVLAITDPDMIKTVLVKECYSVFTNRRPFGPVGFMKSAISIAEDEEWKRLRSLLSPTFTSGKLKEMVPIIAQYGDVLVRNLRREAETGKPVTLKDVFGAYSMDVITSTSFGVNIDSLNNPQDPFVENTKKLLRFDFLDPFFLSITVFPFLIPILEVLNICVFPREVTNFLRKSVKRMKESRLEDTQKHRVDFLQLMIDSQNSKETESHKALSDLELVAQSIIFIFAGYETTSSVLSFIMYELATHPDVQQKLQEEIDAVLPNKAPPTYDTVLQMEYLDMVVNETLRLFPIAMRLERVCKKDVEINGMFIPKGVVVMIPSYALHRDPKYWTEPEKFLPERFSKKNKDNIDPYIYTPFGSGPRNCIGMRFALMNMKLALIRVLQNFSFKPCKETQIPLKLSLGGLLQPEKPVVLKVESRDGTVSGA

CC(=O)c1ccc2ccccc2c1
inconclusive: Potency [2] 19.3 µM [cytotoxic, partial curve, poor fit] | Potency [4] 61.6 µM [activator] | activation [6] 10.3% | Potency [9] 89.4 µM [inhibitor, single point] | activation [10] -20.5% | Potency [11] 54.9 µM [activator, single point] | Potency [12] 49 µM [activator, single point] | Potency [13] 49 µM [activator, partial curve] | Potency [14] 49 µM [activator, partial curve] | Potency [15] 43.6 µM [activator, partial curve, poor fit] | Potency [18] 39.9 µM [inhibitor, partial curve]
inactive: Potency [1] | Potency [3] | Potency [5] | Potency [7] | Potency [8] | Potency [16] | Potency [17] | Potency [19] | Potency [21]
active: Potency [20] 7.96 µM

— PubChem BioAssay (Tox21)
